# According to the supplement of paper PMC8728848:
# This is one part of the list.
# B1: Gal 8 (Homo sapiens) (protein)
# chain: MLSLNNLQNIIYNPVIPYVGTIPDQLDPGTLIVICGHVPSDADRFQVDLQNGSSVKPRADVAFHFNPRFKRAGCIVCNTLINEKWGREEITYDTPFKREKSFEIVIMVLKDKFQVAVNGKHTLLYGHRIGPEKIDTLGIYGKVNIHSIGFSFSSDLQSTQASSLELTEISRENVPKSGTPQLQTVSPSWDLQGHGSETFCSVLWTRVFLEIAFCRPIGLTVASFQSLPFAARLNTPMGPGRTVVVKGEVNANAKSFNVDLLAGKSKDIALHLNPRLNIKAFVRNSFLQESWGEEERNITSFPFSPGMYFEMIIYCDVREFKVAVNGVHSLEYKHRFKELSSIDTLEINGDIHLLEVRSW
# Assays:
# Assay in all cases: glycan array binding signal (z-score within array); higher = stronger binding
# Conditions in all cases: glycan notation: IUPAC condensed, linker removed
# Fuc(a1-2)Gal = biological target: Fuc(a1-2)Gal
# Method in brief: (§1)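 The binding signal is a Z-score computed within each array. Data were drawn from 3228 arrays in the Consortium for Functional Glycomics database, restricted to those with a known protein sequence. Scores were averaged over arrays of the same protein sequence at different concentrations or buffers, and over linkers, and negative values can be taken as non-binding.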
# Fuc(a1-2)Gal(b1-3)GalNAc = biological target: Fuc(a1-2)Gal(b1-3)GalNAc
# Method in brief: as §1
# [1] = biological target: Fuc(a1-2)Gal(b1-3)GalNAc(a1-3)[Fuc(a1-2)]Gal(b1-4)Glc
# Method in brief: as §1
# [2] = biological target: Fuc(a1-2)Gal(b1-3)GalNAc(a1-3)[Fuc(a1-2)]Gal(b1-4)GlcNAc
# Method in brief: as §1
# [3] = biological target: Fuc(a1-2)Gal(b1-3)GalNAc(b1-3)Gal
# Method in brief: as §1
# [4] = biological target: Fuc(a1-2)Gal(b1-3)GalNAc(b1-3)Gal(a1-4)Gal(b1-4)Glc
# Method in brief: as §1
# [5] = biological target: Fuc(a1-2)Gal(b1-3)GalNAc(b1-4)[Neu5Ac(a2-3)]Gal(b1-4)Glc
# Method in brief: as §1
# Fuc(a1-2)Gal(b1-3)GlcNAc = biological target: Fuc(a1-2)Gal(b1-3)GlcNAc
# Method in brief: as §1
# [6] = biological target: Fuc(a1-2)Gal(b1-3)GlcNAc(b1-2)Man(a1-3)[Fuc(a1-2)Gal(b1-3)GlcNAc(b1-2)Man(a1-6)]Man(b1-4)GlcNAc(b1-4)GlcNAc
# Method in brief: as §1
# [7] = biological target: Fuc(a1-2)Gal(b1-3)GlcNAc(b1-2)Man(a1-3)[Fuc(a1-2)Gal(b1-3)GlcNAc(b1-2)Man(a1-6)]Man(b1-4)GlcNAc(b1-4)[Fuc(a1-6)]GlcNAc
# Method in brief: as §1
# [8] = biological target: Fuc(a1-2)Gal(b1-3)GlcNAc(b1-3)Gal(b1-4)Glc
# Method in brief: as §1
# [9] = biological target: Fuc(a1-2)Gal(b1-3)GlcNAc(b1-3)GalNAc
# Method in brief: as §1
# [10] = biological target: Fuc(a1-2)Gal(b1-3)GlcNAc(b1-3)[Fuc(a1-2)Gal(b1-3)GlcNAc(b1-6)]GalNAc
# Method in brief: as §1
# [11] = biological target: Fuc(a1-2)Gal(b1-3)GlcNAc(b1-3)[Gal(b1-4)GlcNAc(b1-6)]Gal(b1-4)Glc
# Method in brief: as §1
# [12] = biological target: Fuc(a1-2)Gal(b1-3)GlcNAc(b1-3)[Neu5Ac(a2-6)Gal(b1-4)GlcNAc(b1-6)]Gal(b1-4)Glc
# Method in brief: as §1
# [13] = biological target: Fuc(a1-2)Gal(b1-3)GlcNAc6S
# Method in brief: as §1
# [14] = biological target: Fuc(a1-2)Gal(b1-3)[Fuc(a1-4)]GlcNAc
# Method in brief: as §1
# [15] = biological target: Fuc(a1-2)Gal(b1-3)[Fuc(a1-4)]GlcNAc(b1-2)Man(a1-3)[Fuc(a1-2)Gal(b1-3)[Fuc(a1-4)]GlcNAc(b1-2)Man(a1-3)]Man(b1-4)GlcNAc(b1-4)GlcNAc
# Method in brief: as §1
# [16] = biological target: Fuc(a1-2)Gal(b1-3)[Fuc(a1-4)]GlcNAc(b1-2)Man(a1-3)[Fuc(a1-2)Gal(b1-3)[Fuc(a1-4)]GlcNAc(b1-2)Man(a1-6)]Man(b1-4)GlcNAc(b1-4)[Fuc(a1-6)]GlcNAc(b1-4)[Fuc(a1-6)]GlcNAc
# Method in brief: as §1
# [17] = biological target: Fuc(a1-2)Gal(b1-3)[Fuc(a1-4)]GlcNAc(b1-3)[Fuc(a1-3)[Gal(b1-4)]GlcNAc(b1-6)]Gal(b1-4)Glc
# Method in brief: as §1
# [18] = biological target: Fuc(a1-2)Gal(b1-3)[Fuc(a1-4)]GlcNAc(b1-3)[Gal(b1-4)GlcNAc(b1-6)]Gal(b1-4)Glc
# Method in brief: as §1
# [19] = biological target: Fuc(a1-2)Gal(b1-4)Fuc(a1-3)]GlcNAc(b1-2)Man(a1-3)[Fuc(a1-2)Gal(b1-4)[Fuc(a1-3)]GlcNAc(b1-2)Man(a1-6)]Man(b1-4)GlcNAc(b1-4)GlcNAc
# Method in brief: as §1
# Fuc(a1-2)Gal(b1-4)Glc = biological target: Fuc(a1-2)Gal(b1-4)Glc
# Method in brief: as §1
# Fuc(a1-2)Gal(b1-4)Glc6S = biological target: Fuc(a1-2)Gal(b1-4)Glc6S
# Method in brief: as §1
# Fuc(a1-2)Gal(b1-4)GlcNAc = biological target: Fuc(a1-2)Gal(b1-4)GlcNAc
# Method in brief: as §1
# [20] = biological target: Fuc(a1-2)Gal(b1-4)GlcNAc(b1-2)Man
# Method in brief: as §1
# [21] = biological target: Fuc(a1-2)Gal(b1-4)GlcNAc(b1-2)Man(a1-3)[Fuc(a1-2)Gal(b1-4)GlcNAc(b1-2)Man(a1-6)]Man(b1-4)GlcNAc(b1-4)GlcNAc
# Method in brief: as §1
# [22] = biological target: Fuc(a1-2)Gal(b1-4)GlcNAc(b1-2)Man(a1-3)[Fuc(a1-2)Gal(b1-4)GlcNAc(b1-2)Man(a1-6)]Man(b1-4)GlcNAc(b1-4)[Fuc(a1-6)]GlcNAc
# Method in brief: as §1
# [23] = biological target: Fuc(a1-2)Gal(b1-4)GlcNAc(b1-2)[Fuc(a1-2)Gal(b1-4)GlcNAc(b1-4)]Man(a1-3)[Fuc(a1-2)Gal(b1-4)GlcNAc(b1-2)Man(a1-6)]Man(b1-4)GlcNAc(b1-4)GlcNAc
# Method in brief: as §1
# [24] = biological target: Fuc(a1-2)Gal(b1-4)GlcNAc(b1-3)Gal(b1-4)GlcNAc
# Method in brief: as §1
# [25] = biological target: Fuc(a1-2)Gal(b1-4)GlcNAc(b1-3)Gal(b1-4)GlcNAc(b1-2)Man(a1-3)[Fuc(a1-2)Gal(b1-4)GlcNAc(b1-3)Gal(b1-4)GlcNAc(b1-2)Man(a1-6)]Man(b1-4)GlcNAc(b1-4)GlcNAc
# Method in brief: as §1
# [26] = biological target: Fuc(a1-2)Gal(b1-4)GlcNAc(b1-3)Gal(b1-4)GlcNAc(b1-3)Gal(b1-4)GlcNAc
# Method in brief: as §1
# [27] = biological target: Fuc(a1-2)Gal(b1-4)GlcNAc(b1-3)GalNAc
# Method in brief: as §1
# [28] = biological target: Fuc(a1-2)Gal(b1-4)GlcNAc(b1-3)[Fuc(a1-2)Gal(b1-4)GlcNAc(b1-6)]GalNAc
# Method in brief: as §1
# [29] = biological target: Fuc(a1-2)Gal(b1-4)GlcNAc(b1-3)[Fuc(a1-3)[Gal(b1-4)]GlcNAc(b1-6)]Gal(b1-4)Glc
# Method in brief: as §1
# [30] = biological target: Fuc(a1-2)Gal(b1-4)GlcNAc(b1-6)GalNAc
# Method in brief: as §1
# [31] = biological target: Fuc(a1-2)Gal(b1-4)GlcNAc6S
# Method in brief: as §1
binder,measurement,setting,value
B1,glycan array binding signal (z-score),Fuc(a1-2)Gal,-0.306
same,glycan array binding signal (z-score),Fuc(a1-2)Gal(b1-3)GalNAc,-0.36
same,glycan array binding signal (z-score),[1],0.572
same,glycan array binding signal (z-score),[2],0.761
same,glycan array binding signal (z-score),[3],-0.38
same,glycan array binding signal (z-score),[4],-0.275
same,glycan array binding signal (z-score),[5],-0.337
same,glycan array binding signal (z-score),Fuc(a1-2)Gal(b1-3)GlcNAc,-0.113
same,glycan array binding signal (z-score),[6],-0.193
same,glycan array binding signal (z-score),[7],-0.329
same,glycan array binding signal (z-score),[8],0.458
same,glycan array binding signal (z-score),[9],-0.354
same,glycan array binding signal (z-score),[10],-0.345
same,glycan array binding signal (z-score),[11],0.003
same,glycan array binding signal (z-score),[12],-0.212
same,glycan array binding signal (z-score),[13],0.566
same,glycan array binding signal (z-score),[14],-0.398
same,glycan array binding signal (z-score),[15],-0.353
same,glycan array binding signal (z-score),[16],-0.354
same,glycan array binding signal (z-score),[17],-0.357
same,glycan array binding signal (z-score),[18],-0.355
same,glycan array binding signal (z-score),[19],-0.354
same,glycan array binding signal (z-score),Fuc(a1-2)Gal(b1-4)Glc,0.044
same,glycan array binding signal (z-score),Fuc(a1-2)Gal(b1-4)Glc6S,0.255
same,glycan array binding signal (z-score),Fuc(a1-2)Gal(b1-4)GlcNAc,-0.363
same,glycan array binding signal (z-score),[20],-0.357
same,glycan array binding signal (z-score),[21],-0.18
same,glycan array binding signal (z-score),[22],-0.339
same,glycan array binding signal (z-score),[23],-0.269
same,glycan array binding signal (z-score),[24],-0.084
same,glycan array binding signal (z-score),[25],0.231
same,glycan array binding signal (z-score),[26],0.132
same,glycan array binding signal (z-score),[27],-0.356
same,glycan array binding signal (z-score),[28],-0.351
same,glycan array binding signal (z-score),[29],-0.234
same,glycan array binding signal (z-score),[30],-0.353
same,glycan array binding signal (z-score),[31],-0.21
